Experimental data reported in PubChem BioAssay AID1963576 (National Center for Advancing Translational Sciences (NCATS), 2024).
Screen size: about 46,000 compounds; about 60 (0.1%) were called active. Roughly 3% stayed inconclusive and do not appear here. Calls come from the whole dose curve; as a rule, active = well fitted inhibition curve with a large enough effect; inconclusive = small, poorly fitted or top-dose-only effect; inactive = no such curve, though single readings can be large or run the other way. Some of the results follow.

Test: Primary qHTS assay for Inhibitors of ovarian cancer metastasis using an organotypic tumor microenvironment (TME) model.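 For activity change, negative = inhibition: plate controls were DMSO wells for no effect and tomatine positive control wells for full effect.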 Note: nearly all actives have a fitted effect of over 65% in size.
Conditions: SKOV3ip1-GFP adhesion/invasion on 3D omental model, fluorescence; series mostly up to 45.8 µM; activity change, negative = inhibition: at the top concentration
Procedure, shortened: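 Primary human omental fibroblast/mesothelial 3D culture pre-formed 48 h. SKOV3ip1-GFP cells added with compounds (0.36-46 umol/L), incubated 2 h RT/16 h 37 C, fixed; GFP cells quantified at 488/509 nm.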

Activity change, negative = inhibition, inactive:
COc1ccccc1NC(=O)C1=C(C)Nc2nc(CCCO)nn2C1c1cccc(O)c1 (stereo unspecified) -2.21%
COc1ccc2c(Sc3ccc(C)cc3)c(C(=O)NCc3ccc(F)cc3)[nH]c2c1 -3.08%
CCCC(=O)Nc1cc(C(=O)NCc2ccccc2)ccc1S(=O)(=O)c1ccc(Cl)cc1 -12.5%
CC(C)c1ccc(NC(=O)CC2NCCNC2=O)cc1 (stereo unspecified) 53.4%
O=C(Nc1cccc(NC(=O)c2ccccc2F)c1)c1ccccc1 -3.87%
O=C(Cn1cc(S(=O)(=O)N2CCCC2)c(S(=O)(=O)N2CCCC2)c1)Nc1ccccc1 4.33%
COc1cc(C2CC(=O)c3cnc(N4CCN(CCO)CC4)nc3C2)cc(OC)c1OC (stereo unspecified) -26.6%
Cn1c(=O)c(=O)n(C)c2cc(S(=O)(=O)N3CCN(c4ccc(F)cc4)CC3)ccc21 5.14%
Cc1ccc(S(=O)(=O)N2CCCc3cc(NS(=O)(=O)c4cc(F)ccc4F)ccc32)cc1 -7.9%
COC(=O)c1c(NC(=O)COc2ccc(OC)cc2)sc2c1CCC(C)C2 (stereo unspecified) -19.4%
COc1cc(NC(=O)CSc2ccc(-c3sc(-c4ccccc4)nc3C)nn2)cc(OC)c1 -0.167%
CCCc1cc(=O)[nH]c2nnc(SCCC(C)C)n12 -17.3%
CCC(=O)N1c2ccccc2CC1C(=O)NCCc1ccc(OC)cc1OC (stereo unspecified) 3.29%
COc1ccc(CN2CCN(S(=O)(=O)c3ccccc3)CC2)c(OC)c1 19.1%
Cc1ccc(CSc2nnc3[nH]c(=O)cc(C)n23)cc1 0.117%
CCn1cc(S(=O)(=O)c2ccc(C)cc2C)c(=O)c2cc(F)c(N3CCCC3)cc21 -0.825%
CCCn1cc(S(=O)(=O)c2ccc(OC)cc2)c(=O)c2cc(F)c(N3CCCCCC3)cc21 -3.7%
CC(=O)Nc1nonc1-c1nnc(SCc2ccc(C)cc2)n1C -11.7%
CCOC(=O)CNc1ncnc2c1nnn2C -10.3%
COc1cccc(CNC(=O)CCc2c(C)nn(-c3ccc(N4CCOCC4)nn3)c2C)c1 5.74%
CCNC(=O)c1ccc(-n2c(-c3ccccc3)cc3c2CCCCC3)cc1 -26.2%
O=C(CC1C(=O)N(c2ccccc2)C(=O)N1CCc1cccs1)Nc1ccc(Cl)cc1 (stereo unspecified) -2.82%
COc1ccc(OC)c(NC(=O)[C@H](Cc2ccccc2)N2Cc3ccccc3C2=O)c1 59.4%
COc1cccc(-c2cc(C(=O)Nc3ccc(F)cc3)[nH]n2)c1 -2.39%
CCCc1cc(=O)[nH]c2nnc(SCC(=O)Nc3cccc(C)c3)n12 1.12%
CC1C(=O)N2CCCc3cc(S(=O)(=O)Nc4ccc(Br)cc4F)cc1c32 (stereo unspecified) -0.736%
O=C(Cn1c(=O)oc2cc(S(=O)(=O)NCc3ccccc3)ccc21)N(CCO)Cc1ccccc1 -1.2%
COc1cccc(NC(=O)C2CCCN2S(=O)(=O)c2ccc3c(c2)n(C)c(=O)c(=O)n3C)c1 (stereo unspecified) -3.29%
COc1ccc(OC)c(NC(=O)c2nc(SCc3ccccc3F)ncc2Cl)c1 -2.25%
Cc1ccc2oc(C(=O)Nc3sc4c(c3C(=O)NCc3ccccc3)CCCC4)cc(=O)c2c1 1.04%
CCOc1ccc(NC(=O)c2ccc3nc(Cc4ccccc4)oc3c2)cc1 -18.1%
CCC1CN(C(=O)Nc2cc(OC)cc(OC)c2)c2ccccc2S1 (stereo unspecified) -4.04%
CCc1cccc(-n2c(=O)c3cccnc3n2CC(=O)Nc2ccccc2C(=O)OC)c1 -7.3%
CCC(=O)N1CCc2cc(S(=O)(=O)NC(Cc3ccccc3)C(=O)NCc3ccc(F)cc3)ccc21 (stereo unspecified) -0.447%
N#CC1=C2SCN(C3CCCCC3)CN2C(=O)CC1c1ccc(F)cc1 (stereo unspecified) -25.8%
Cc1ccc(OCC(=O)OCc2cc(=O)n3c(C)csc3n2)cc1 -0.337%
CCOc1ccc(NC(=O)C2CCCN(S(=O)(=O)c3ccc(Br)s3)C2)cc1 (stereo unspecified) -12.4%
COc1ccc(C(=O)Nc2cccc(-c3nc4cccnc4s3)c2C)c(OC)c1 -8.87%
O=C(CSc1nc2c([nH]c3ccccc32)c(=O)n1-c1ccccc1)Nc1ccccc1F 2.34%
O=C(CCn1cnnn1)Nc1ccccc1 1.8%
Cc1ccc(-c2c(C)n3c4c(=O)n(C)c(=O)n(C)c4nc3n2CCCO)cc1 9.75%
CC(=O)N1CCCc2cc(S(=O)(=O)N3CCC(N(C)C(C)C)CC3)ccc21 0.395%
COCCCNC(=O)C1CCN(c2ncnc3c2nc2n3CCCCC2)CC1 3.06%
O=C(Nc1cccc(C(F)(F)F)c1)c1ccc(F)c(S(=O)(=O)N2CCc3ccccc3C2)c1 1.38%
CCOc1cc(Br)c(C2C(C(=O)OC)=C(C)NC3=C2C(=O)c2ccccc23)cc1OCC (stereo unspecified) 5.87%
Cc1cccc(C(=O)NC(=O)Nc2ccc(-n3nc(C(F)(F)F)cc3C(F)(F)F)cc2)c1 2.85%
CCC(C)NC(=O)C1CCN(S(=O)(=O)c2ccc3c(ccn3CC)c2)CC1 (stereo unspecified) 3.55%

outcome, inactive:
O=C(CSc1nc2c(oc3ccccc32)c(=O)n1-c1ccccc1)Nc1ccccc1F
O=C(CCCn1c(=O)c2ccccc2n(Cc2cccc(Cl)c2)c1=O)NCCc1ccc(Cl)cc1
CCCN1C(=O)C2(c3ccccc31)c1c(oc3cc(C)c(C)cc3c1=O)C(=O)N2CCCOC (stereo unspecified)
CC(C)Oc1ccc(CNC(=O)C2CCCN(S(=O)(=O)c3ccc4c(ccn4C)c3)C2)cc1 (stereo unspecified)
Cc1c(C(=O)Nc2cccc(C(F)(F)F)c2)oc2ccc(S(=O)(=O)N(C)C3CCCCC3)cc12
Cc1cccn2c(=O)c(/C=C(\C#N)c3nc4ccccc4n3C)c(Oc3ccc(Cl)cc3)nc12
CCCNC(=O)c1c2c(nc3ccccc13)C(=O)N(C1CCCCC1)C2
CCOc1cc(-c2nnc(SCC(=O)NCc3ccc(C)cc3)nc2-c2ccc(OC)c(OCC)c2)ccc1OC
COc1ccc(-n2nc3cc(C)c(NC(=O)c4ccc(C)cc4C)cc3n2)cc1Cl
CCOC(=O)c1ccccc1NC(=O)Cn1c(=O)n(Cc2ccc(C(=O)NCc3ccc4c(c3)OCO4)cc2)c(=O)c2ccccc21
COc1ccc(-c2nc(C)c(CCNC(=O)c3ccccc3Br)s2)cc1OC
Cc1c2cnn(CC(=O)NCc3ccc(F)cc3)c(=O)c2c(C)n1Cc1ccccc1Cl
CC(=O)N1c2c(cc(Br)cc2S(=O)(=O)Nc2ccccc2C)CC1C (stereo unspecified)
COc1ccc2c(c1)c1c(c(=O)n(-c3ccc(C)cc3)c(=O)n1CC(=O)Nc1cc(C)ccc1C)n2C
